Source: paper PMC8353491, “An “up” oriented methionine-aromatic structural motif in SUMO is critical for its stability and activity” (The Journal of Biological Chemistry, 2021)

Biological target: T1, Ubc9 (SUMO E2 conjugating enzyme) (UniProt P63279)
T1 construct: Ubc9, the SUMO conjugating enzyme E2; 15N-labelled in the reverse NMR titration; source: purified
Experiment: ITC; SUMO1 in the cell (wt 12 uM, M82I 7 uM), Ubc9 365 uM in the syringe; 25 mM Tris pH 8.0, 2 mM BME; 298 K; GE ITC200
Conditions: both partners purified

Kd: 85 ± 30 nM
B1: wild-type human SUMO1 (Small Ubiquitin-like Modifier 1) (natural protein)
chain: not shown
notes: human wild-type SUMO1, 6xHis tagged, in pQE-80L; Uniformly 15N- (or 13C/15N-) labelled for the NMR titrations in which SUMO1 is observed, unlabelled otherwise; As it is active in SUMOylation it is probably the mature form (surmise); also called wt-SUMO1; Wt-SUMO1; source: E. coli BL21 (DE3), purified (Ni-NTA, gel filtration Superdex 75)
